From PubChem BioAssay (NCI)
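The compound was tested at five concentrations on cells cultured in 96-well plates, with a 48-hour exposure period. At the GI50, growth is halved. TGI marks complete inhibition of growth.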

How the values were obtained:
Assay in all cases: DTP human tumour cell line panel, 48 h
CCRF-CEM leukemia = test system: CCRF-CEM leukemia
HOP-92 NSCLC = test system: HOP-92 NSCLC
NCI-H226 lung = test system: NCI-H226 lung
NCI-H23 lung = test system: NCI-H23 lung
SR leukemia = test system: SR leukemia
UACC-257 melanoma = test system: UACC-257 melanoma

`O=C(O)c1ccc(Oc2nccc(-c3c(-c4ccc(F)cc4)ncn3C3CCNCC3)n2)cc1` gave a GI50 (CCRF-CEM leukemia) of over 25 µM, a TGI (CCRF-CEM leukemia) of over 25 µM and a GI50 (HOP-92 NSCLC) of over 25 µM. For the same molecule, the TGI (HOP-92 NSCLC) was over 25 µM, the GI50 (NCI-H226 lung) was over 25 µM and the TGI (NCI-H226 lung) was over 25 µM. For the same molecule, the GI50 (NCI-H23 lung) was over 25 µM, the TGI (NCI-H23 lung) was over 25 µM and the GI50 (SR leukemia) was over 25 µM. The TGI (SR leukemia) was over 25 µM, the GI50 (UACC-257 melanoma) was over 25 µM and the TGI (UACC-257 melanoma) was over 25 µM.
